{"source": "PubChem BioAssay AID1346428", "about": "(National Center for Advancing Translational Sciences (NCATS), 2018)", "note": "Screen size: about 48,000 compounds; about 1,200 (2.5%) were called active. Another 2% or so got no clear call; they are omitted.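 The calls were made as follows: active = activation of at least 60% and not above a set upper limit (about 1 call in 100 departs from these limits); inconclusive = activation of 40% to 60%, or above that upper limit; inactive = activation under 40%.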 The list shows a part of the results."}
{"target": "Probable G-protein coupled receptor 32 (Homo sapiens) (UniProt O75388)", "sequence (O75388 whole entry, looked up)": "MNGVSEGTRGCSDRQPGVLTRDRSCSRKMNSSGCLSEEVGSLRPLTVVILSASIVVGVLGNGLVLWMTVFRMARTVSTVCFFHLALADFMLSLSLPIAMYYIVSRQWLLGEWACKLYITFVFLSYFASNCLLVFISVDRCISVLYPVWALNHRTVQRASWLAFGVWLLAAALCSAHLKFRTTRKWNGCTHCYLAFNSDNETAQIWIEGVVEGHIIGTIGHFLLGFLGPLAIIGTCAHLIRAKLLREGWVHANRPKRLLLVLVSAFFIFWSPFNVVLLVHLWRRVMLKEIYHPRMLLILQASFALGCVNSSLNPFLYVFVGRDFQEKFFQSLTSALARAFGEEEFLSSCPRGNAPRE", "assay": "qHTS for Agonists of Human Resolvin D1 Receptor DRV1; also: 0% is about no effect", "settings": "CHO-K1 GPR32 beta-arrestin PathHunter luminescence, 90 min; at 76.9 µM; active compounds read high; zero percent set by DMSO-only wells", "summary_of_the_method": "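Beta-arrestin recruitment read-out: luminescence from complemented beta-Gal in CHO-K1 GPR32 PathHunter cells, measured 1 h after detection reagent at ambient temperature following 90 min compound exposure at 37 °C; DMSO served as basal (EC0) control.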"}
{"smiles": "COc1ccc(-c2nc(CSCC(=O)N3CCN(c4ccc(F)cc4)CC3)c(C)o2)cc1", "activation": "inactive: -7.04%"}
{"smiles": "CC1CCCN(S(=O)(=O)c2ccc3c(c2)CCN3C(=O)CCC(=O)O)C1", "note": "(centres undefined)", "activation": "inactive: 6.02%"}
{"smiles": "CCC(C)Nc1ncnc2c1cnn2-c1ccc(F)cc1", "note": "(centres undefined)", "activation": "active: 65.1%"}
{"smiles": "Cc1cccc(Cc2c(C)nc3c(-c4ccccc4)c(C)[nH]n3c2=O)c1", "activation": "inactive: -61.9%"}
{"smiles": "COc1ccc(NS(=O)(=O)c2ccc3nc(-c4ccccc4)[nH]c3c2)cc1", "activation": "active: 116%"}
{"smiles": "Cc1cc(C(=O)Nc2ccc(-n3c(C)nc4ccccc4c3=O)cc2)ccc1[N+](=O)[O-]", "activation": "inactive: 21.6%"}
{"smiles": "CCN(Cc1ccccc1)C(=O)c1cnn(-c2ccc(F)cc2)c1-n1cccc1", "activation": "inactive: 40.7%"}
{"smiles": "CCC(Sc1nnc(C)n2c1cc1occc12)C(=O)Nc1ccccc1OC", "note": "(centres undefined)", "activation": "inactive: -4.66%"}
{"smiles": "Cc1ccc(NC(=O)c2cnn3c2NC(c2ccccc2)=CC3c2ccccc2)cc1", "note": "(centres undefined)", "activation": "inactive: -10.3%"}
{"smiles": "CCCn1c2ccccc2c2nnc(SCC(=O)Nc3cccc(C(C)=O)c3)nc21", "activation": "inactive: -4.67%"}
{"smiles": "CC(=O)c1sc(N2C(=O)c3oc4ccccc4c(=O)c3C2c2ccc(C)cc2)nc1C", "note": "(centres undefined)", "activation": "inactive: 19.8%"}
{"smiles": "CC(=O)c1ccc(NC(=O)Cn2nc(N3CCN(c4ccccc4)CC3)ccc2=O)cc1", "activation": "inactive: -19.7%"}
{"smiles": "COc1ccccc1OC(C)C(=O)Nc1cccc(-c2nc3ccccc3o2)c1", "note": "(centres undefined)", "activation": "inactive: 1.28%"}
{"smiles": "CCc1ccc(NS(=O)(=O)c2ccc3[nH]cc(C(=O)NCCCOC(C)C)c(=O)c3c2)cc1", "activation": "inactive: -5.26%"}
{"smiles": "COc1ccccc1CNC(=O)CSC1=Nc2ccccc2N=C(c2ccc(F)cc2)C1", "activation": "inactive: -16.8%"}
{"smiles": "Cc1ccc(Cl)cc1N1CCN(S(=O)(=O)c2ccc3c(c2)CCN3C(=O)C2CCC2)CC1", "activation": "inactive: -5.22%"}
{"smiles": "O=C(NCc1cccnc1)c1nn(-c2ccc(F)cc2)nc1CO", "activation": "inactive: -5.96%"}
{"smiles": "CCCSc1nc2c([nH]c3ccccc32)c(=O)n1C", "activation": "inactive: -3.94%"}
{"smiles": "CC(C)c1nc2ccc(C(=O)Nc3ccccc3F)cc2o1", "activation": "inactive: -11.4%"}
{"smiles": "O=C(Nc1ccccc1Cl)c1sc2cccc(Cl)c2c1Cl", "activation": "inactive: 9.53%"}
{"smiles": "COc1ccc(NC(=O)c2oc3ccccc3c2NC(=O)COc2ccc(C(C)C)cc2)c(OC)c1", "activation": "inactive: 18%"}
{"smiles": "CCSc1nc2n(n1)C(c1ccc(C(=O)O)cc1)C(C(=O)Nc1ccccc1C)=C(C)N2", "note": "(centres undefined)", "activation": "inactive: 45.2%"}
{"smiles": "CN1C(C(=O)Nc2ccc(OC(F)(F)F)cc2)=CC(c2cccs2)=NS1(=O)=O", "activation": "inactive: -5.47%"}
{"smiles": "COc1cccc(NC(=O)Cn2c(=O)n(Cc3ccccc3)c(=O)c3ccccc32)c1", "activation": "inactive: -0.216%"}
{"smiles": "CCOc1cc(CNC(=O)CN2CCSc3ccccc32)cc(OCC)c1OCC", "activation": "inactive: 42.8%"}
{"smiles": "Cc1ccc(N(CC(=O)Nc2ccc(Cl)cc2)S(=O)(=O)c2cccc3nonc23)cc1", "activation": "inactive: -27.3%"}
{"smiles": "Cc1ccc(NC(=O)Cc2coc3ccc(C(C)C)cc23)cc1Cl", "activation": "inactive: 17.5%"}
{"smiles": "CN(C)c1ccc(CNC(=O)Cn2c(=O)oc3cc(S(=O)(=O)N4CCCCCC4)ccc32)cc1", "activation": "active: 113%"}
{"smiles": "COc1ccc(-c2nc3c(c(SCC(=O)N4CCCCC4)n2)Cc2cc(Cl)ccc2O3)cc1", "activation": "inactive: -9.83%"}
{"smiles": "CCOC(=O)c1c(NC(=O)c2ccc(OC)cc2)sc2c1CCCCC2", "activation": "inactive: 6.41%"}
{"smiles": "O=C(COc1ccccc1)Nc1ccc2nc(SCC(=O)N3CCOCC3)sc2c1", "activation": "inactive: 16.1%"}
{"smiles": "Cc1ccc(-n2ncc(C(=O)N3CCCCC3)c2C2CCN(C(=O)OC(C)(C)C)CC2)c(C)c1", "activation": "inactive: 1.71%"}
{"smiles": "CCCS(=O)(=O)c1nc(S(=O)(=O)c2ccc(C)cc2)c(NC)s1", "activation": "inactive: -10.3%"}
{"smiles": "COc1ccc(-n2c(=O)[nH]c3cc(C(=O)NCCc4ccccc4)ccc3c2=O)cc1OC", "activation": "inactive: 16.3%"}
{"smiles": "O=C(CCC(=O)c1ccc(F)cc1)Nc1ccc(Cl)cc1", "activation": "inactive: 3.03%"}
{"smiles": "CCOc1ccc(CNC(=O)C2CCCCN2S(=O)(=O)c2ccc(F)cc2)cc1OC", "note": "(centres undefined)", "activation": "inactive: 13.7%"}
{"smiles": "CCn1cc(S(=O)(=O)c2cccc(C)c2)c(=O)c2cc(F)c(N3CCCC(C)C3)cc21", "note": "(centres undefined)", "activation": "inactive: 0.0169%"}
{"smiles": "O=C(c1ccc2c(c1)N(Cc1ccccc1F)C(=O)c1ccccc1S2(=O)=O)N1CCN(c2ccccn2)CC1", "activation": "inactive: -19.1%"}
{"smiles": "COc1ccc(-c2nc3c(c(SC)n2)Cc2c(CO)cnc(C)c2O3)cc1", "activation": "inactive: -4.71%"}
{"smiles": "CCn1c(=O)c2cc(C(=O)NCCCN3CCN(C)CC3)sc2c2ccccc21", "activation": "inactive: 7.61%"}
{"smiles": "Cc1ccccc1NC(=O)c1c(C)oc2ccc(O)c(CN3CCOCC3)c12", "activation": "inactive: 22.8%"}
{"smiles": "O=C(CSc1n[nH]c(-c2ccccc2Cl)n1)NCc1ccc(F)cc1", "activation": "inactive: -15.9%"}
{"smiles": "COc1ccc(S(=O)(=O)NCc2nc3nc(C)cc(C)n3n2)cc1", "activation": "inactive: -7.42%"}
{"smiles": "Cc1ccc(Nc2c(-c3ccc(Br)o3)nc3ccccn23)cc1", "activation": "inactive: -10.9%"}
{"smiles": "NC(=O)c1c(NC(=O)CS(=O)(=O)c2ccc(Cl)cc2)sc2c1CCCCC2", "activation": "inactive: 4.44%"}
{"smiles": "O=C(NCCCN1CCN(c2cccc(Cl)c2)CC1)c1sc2ncccc2c1-n1cccc1", "activation": "inactive: -3.71%"}
{"smiles": "Cc1ccc(-c2nc(CS(=O)(=O)CC(=O)Nc3ccc(Br)cc3F)c(C)o2)cc1", "activation": "inactive: -11.6%"}
{"smiles": "CCC(=O)Oc1c(Sc2ccc(Cl)cc2)c(C)nn1-c1ccccc1", "activation": "inactive: -2.97%"}
{"smiles": "Cc1ccc(Cl)cc1N1CCN(C(=O)Cn2ncc3c4ccccc4n(C)c3c2=O)CC1", "activation": "inactive: 22.6%"}
{"smiles": "CCOc1ccc(NC(=O)CSC2=Nc3ccccc3C3=NC(CCC(=O)NCc4ccco4)C(=O)N23)cc1", "note": "(centres undefined)", "activation": "inactive: -2.77%"}
{"smiles": "Cc1ccc(-c2csc(-c3cc4c([nH]c3=O)CC(c3ccccc3)CC4=O)n2)cc1", "note": "(centres undefined)", "activation": "inactive: -22.2%"}
{"smiles": "CC1CCCN(c2nc3c(-c4ccc(Cl)cc4)nnn3c3ccccc23)C1", "note": "(centres undefined)", "activation": "inactive: -12.9%"}
{"smiles": "Cc1cc(Cl)ccc1NS(=O)(=O)c1c(C(=O)N2CCC(C)CC2)c(C)n(C)c1C", "activation": "inactive: -26.4%"}
{"smiles": "Cc1cc2c(cc1S(=O)(=O)Nc1ccc(OC(F)(F)F)cc1)OCC(=O)N2", "activation": "inactive: -3.96%"}
